The supplement of paper PMC12645437, “Orthogonal IMiD-Degron Pairs Induce Selective Protein Degradation in Cells” (ACS Chemical Biology, 2025)
This is one part of the list.

B1: Q9UKT9 (peptide)
chain: LACEICGFWCTQKGNLLRHIKL
B2: Q9UKT9 (peptide)
chain: FVCEVCGAGFTQKGNLLRHIKL
B3: Q9UKT9 (peptide)
chain: FDCNQCGRIFTQKGNLLRHIKL
B4: Q9UKT9 (peptide)
chain: FQCPICGATFTQKGNLLRHIKL
B5: Q9UKT9 (peptide)
chain: FICNQCGRHFTQKGNLLRHIKL
B6: Q9UKT9 (peptide)
chain: FTCPICGHLFTQKGNLLRHIKL
B7: Q9UKT9 (peptide)
chain: LNCPICGFRCTQKGNLLRHIKL
B8: Q9UKT9 (peptide)
chain: FHCPICGHCFTQKGNLLRHIKL
B9: Q9UKT9 (peptide)
chain: FMCEICGRRFTQKGNLLRHIKL
B10: Q9UKT9 (peptide)
chain: FECPICGRYFTQKGNLLRHIKL
B11: Q9UKT9 (peptide)
chain: LFCEICGFVCTQKGNLLRHIKL
B12: Q9UKT9 (peptide)
chain: FLCDQCGALFTQKGNLLRHIKL
B13: Q9UKT9 (peptide)
chain: FQCEICGRPFTQKGNLLRHIKL
B14: Q9UKT9 (peptide)
chain: FLCEQCGARFTQKGNLLRHIKL

Biological target: no compound (DMSO)
Test: log2 fold change of degron read counts, EGFP-low vs EGFP+ sorted cells; higher = lower degron-EGFP level without compound (poor expression or instability)
Settings: compound: DMSO control; 18 h
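Note: jurkat cells carrying a lentiviral library of mutant zinc finger degrons fused to EGFP plus mCherry, mCherry+ cells FACS sorted, degron abundance counted by next-generation sequencing.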

Sequence	log2 fold change of degron read counts
B1	1.03
B2	-2.34
B3	0.834
B4	-0.326
B5	-0.622
B6	-0.183
B7	0.875
B8	-0.0489
B9	-1.44
B10	-0.188
B11	0.596
B12	-0.363
B13	-1.34
B14	-1.24
